# Source: publication PMC4336329 (PLoS ONE, 2015)
# About 14,000 (4.5%) of roughly 310,000 compounds showed an effect of 50% or more. The effect is printed as a negative number. The list shows a part of the results.
# Biological target: human ether-à-go-go-related gene (hERG) potassium channel (human, UniProt Q12809)
# Assay: primary screen, population patch clamp on CHO cells stably expressing hERG
# 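Also: peak tail current of the secondary pulse compared with the same well before compound.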
# Chain of human ether-à-go-go-related gene (hERG) potassium channel (Q12809 whole entry, looked up): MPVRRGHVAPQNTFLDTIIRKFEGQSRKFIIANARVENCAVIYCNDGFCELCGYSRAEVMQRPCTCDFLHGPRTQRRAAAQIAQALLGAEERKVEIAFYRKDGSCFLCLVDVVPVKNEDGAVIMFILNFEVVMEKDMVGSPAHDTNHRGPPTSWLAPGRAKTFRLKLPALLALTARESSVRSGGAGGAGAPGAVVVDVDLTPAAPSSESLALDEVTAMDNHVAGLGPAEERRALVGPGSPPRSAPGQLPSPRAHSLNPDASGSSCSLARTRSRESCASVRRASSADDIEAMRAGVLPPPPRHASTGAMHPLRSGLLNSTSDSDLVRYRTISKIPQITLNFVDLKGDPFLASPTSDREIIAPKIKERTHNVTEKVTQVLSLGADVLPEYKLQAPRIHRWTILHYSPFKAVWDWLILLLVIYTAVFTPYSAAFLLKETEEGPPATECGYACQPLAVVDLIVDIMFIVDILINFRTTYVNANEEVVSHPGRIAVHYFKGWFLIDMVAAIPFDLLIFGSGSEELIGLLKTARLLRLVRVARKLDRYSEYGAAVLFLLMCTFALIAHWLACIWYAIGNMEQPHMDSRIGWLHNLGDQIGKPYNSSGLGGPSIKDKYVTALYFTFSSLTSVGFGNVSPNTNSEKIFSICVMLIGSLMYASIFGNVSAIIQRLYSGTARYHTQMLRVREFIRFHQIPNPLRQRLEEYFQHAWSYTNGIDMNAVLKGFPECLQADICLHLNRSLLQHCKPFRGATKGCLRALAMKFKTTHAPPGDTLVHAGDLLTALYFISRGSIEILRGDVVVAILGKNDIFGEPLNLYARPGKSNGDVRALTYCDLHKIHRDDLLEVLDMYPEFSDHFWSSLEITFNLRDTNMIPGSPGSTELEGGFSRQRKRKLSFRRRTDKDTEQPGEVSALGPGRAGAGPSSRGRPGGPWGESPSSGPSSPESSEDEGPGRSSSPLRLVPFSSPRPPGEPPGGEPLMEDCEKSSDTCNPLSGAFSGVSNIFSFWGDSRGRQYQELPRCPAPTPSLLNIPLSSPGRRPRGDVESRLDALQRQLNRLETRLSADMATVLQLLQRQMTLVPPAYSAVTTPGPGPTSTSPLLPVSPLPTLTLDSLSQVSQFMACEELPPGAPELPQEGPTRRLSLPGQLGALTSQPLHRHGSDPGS
row,Structure (SMILES),"hERG current change (%, negative = inhibition) at 10uM [%]"
1,CC(NC(=O)C(C)N1CCN(Cc2ccccc2)CC1)c1ccccc1 (stereo not drawn),8.63
2,Cc1c(Cl)cccc1NC(=S)N(Cc1cccnc1)Cc1ccccc1Cl,9.15
3,O=C(Cn1cc(C(=O)C2CC2)c2ccccc21)NCC1CCCO1 (stereo not drawn),-1.95
4,CCNS(=O)(=O)c1ccc2c(c1)NCC2,32
5,COC(C[C@H]1O[C@@H]1[C@H](O)[C@H](C)OCc1ccccc1)OC,8.15
6,Cc1ccccc1C(=O)NCCCCc1ccccc1,-0.639
7,Clc1ccc2[nH]c3c(c2c1)CNCC3,5.91
8,CC(=NC(C)C)C1=C(O)C(C)OC1=O (stereo not drawn),5.81
9,CCc1cccc(CC)c1NC(=S)NCc1nc2ccccc2[nH]1,3.09
10,COc1ccc(CCC(=O)Nc2ccc3c(c2)OCO3)cc1OC,9.66
11,Cc1ccn(CCC(=O)NC2CCCc3c2cnn3-c2cccc(C)c2C)n1 (stereo not drawn),11.9
12,O=C(CSc1cccc2cccnc12)NCc1ccco1,-1.16
13,C/C(=N/NC(=O)CCCOc1ccc(Cl)cc1Cl)c1ccc(C)o1,3.44
14,O=C(CCNS(=O)(=O)c1ccc(Br)cc1)Nc1cccc(F)c1,3.19
15,COc1cc(C(=O)N(Cc2cc3ccccc3[nH]c2=O)CC2CCCO2)cc(OC)c1OC (stereo not drawn),-0.737
16,CC(=O)N1CCN(c2ccc(NC(=O)c3ccc(Cl)cc3)cc2)CC1,-7.91
17,O=S(=O)(O)c1cnccc1Nc1cccc(C(F)(F)F)c1,5.95
18,C/C(=N\N1CCN(C2c3ccccc3-c3ccccc32)CC1)c1ccncc1,9
19,O=C(O)CN1C(=O)C(=O)N(Cc2ccc(C(F)(F)F)cc2)C1=O,23.3
20,COc1ccccc1NC(=S)NC(=O)Cc1ccc(Cl)cc1,17.7
21,CS(=O)(=O)N1CCN(C(=O)c2cc(-c3ccccc3)nc3ccccc23)CC1,-30.8
22,O=C(CS(=O)(=O)c1cn(Cc2cccc(F)c2)c2ccccc12)N1CCOCC1,-7.38
23,COc1ccc(CNC(=O)CN2C(=O)CCSc3ccc(S(=O)(=O)N4CCCC4)cc32)cc1,-35.3

row,Structure (SMILES),"hERG current change (%, negative = inhibition) at 10uM [%]"
1,Cc1c(NC(=O)C2CC(c3cccc(Br)c3)=NO2)c(=O)n(-c2ccccc2)n1C (stereo not drawn),-3.39
2,CCCOc1ccc(C2C(C(=O)c3ccc(C)o3)=C(O)C(=O)N2Cc2ccco2)cc1OCC (stereo not drawn),9.65
3,Cn1cccc1-c1nc2ccc([N+](=O)[O-])cc2[nH]1,4.4
4,CCOC(=O)C1=C(C)NC(=O)CC1c1cc2c(cc1[N+](=O)[O-])OCO2 (stereo not drawn),7.35
5,Cc1ccccc1NC(=S)NN1CCN(C)CC1,4.23
6,COc1ccc(Br)cc1/C=N/NC(=O)c1ccc2nc[nH]c2c1,22.3
7,O=C(CCCN1C(=O)c2ccccc2C1=O)Nc1nncs1,14.8
8,CC1(C)N=C(N)N=C(N)N1c1ccc(C(=O)O)cc1.Cl,-16.4
9,Cc1cccc(CN2C(=O)N/C(=C/c3cc(C)n(-c4cc(C)ccn4)c3C)C2=O)c1,5.62
10,c1ccc2c(-c3ccncc3)c[nH]c2c1,7.86
11,COc1ccc(/C=C/c2nnc(NC(=O)C(C)C)s2)cc1,9.76
12,COc1ccc(C2CC(c3ccc(Cl)cc3)=NN2C(C)=O)cc1 (stereo not drawn),-23.5
13,Clc1ccc(OCCN2CCCCC2)c(Cl)c1.O=C(O)C(=O)O,-16.2
14,Cc1nn(C)c(Cl)c1NC(=O)OCc1ccccc1,-16.3
15,COc1ccc(N2C(=O)C(Cl)=C(Oc3cccc(OC)c3)C2=O)cc1,0.624
16,COc1ccc(OC)c(N(CC(=O)NC2CC3CCC2C3)S(=O)(=O)c2ccccc2)c1 (stereo not drawn),-59.7
17,COc1ccc(NC(=O)c2cc(-c3cccc(OC)c3)on2)cc1,12.4
18,COc1ccc(NC(=O)CCOc2ccc(C)cc2)cc1S(=O)(=O)N1CCOCC1,-34.9
19,COc1ccccc1CNC(=O)COC(=O)CNS(=O)(=O)c1ccc(C)cc1,-38.7
20,CC(=O)c1cccc(NC(=O)Nc2ccc3c(c2)N(C)C(=O)CS3)c1,-6.23
21,CN(CC(=O)NCc1ccc2c(c1)OCO2)CC(=O)Nc1ccc(F)c(F)c1F,-13.2
22,O=C(COC(=O)CNC(=O)c1ccc(Cl)cc1Cl)NC(=O)NC1CCCCC1,-14.2
23,COCC(C)N1CCC(n2nccc2NC(=O)CCCc2ccccc2)CC1 (stereo not drawn),-15.2

row,Structure (SMILES),"hERG current change (%, negative = inhibition) at 10uM [%]"
1,Cc1nn(C)c(C(=O)N/N=C/c2cccnc2)c1Cl,16.9
2,COC(=O)C1=C(c2ccc(OC(F)(F)F)cc2)C[C@@H]2CC[C@H]1N2C(=O)NCC1CC1,-58.6
3,COc1ccc(-n2c(SC)nc(O)cc2=O)cc1,-3.08
4,O=C(c1cccc(Cl)c1)N(Cc1ccco1)C1CCS(=O)(=O)C1 (stereo not drawn),3.46
5,COc1ccc(OCCC(=O)OCC(=O)NC(=O)NC(C)(C)C)cc1,-6.8
6,O=C(CCCN=C1NS(=O)(=O)c2ccccc21)OCc1ccc(F)cc1,-14.2
7,CN(CC(=O)Nc1ccc(Cl)c(C(F)(F)F)c1)C(=O)Cc1ccsc1,-18.9
8,CC(C)(C)c1n[nH]c(=S)n(/N=C/c2cccs2)c1=O,7.18
9,O=C(COC(=O)Cc1ccccc1F)Nc1ccc2c(c1)OCCO2,20.5
10,N#C/C(=C\c1ccc(Sc2nc3ccccc3[nH]2)o1)c1ccccc1,-2.62
11,Cc1c(Cl)cnc(NC(=O)CSc2n[nH]c(N)n2)c1Cl,10.9
12,CN1CCc2nc3ccc(Cl)cc3c(-c3ccccc3Cl)c2C1.Cl,-65.7
13,COC(=O)c1cnc(SCc2ccc([N+](=O)[O-])cc2)n1C,-32
14,CCOC(=O)c1nnn(-c2nonc2N)c1-c1cccs1,-12.8
15,O=C1c2ccccc2C(=O)N1CCCCn1c(=O)oc2ccccc21,-13.9
16,Cc1nn2c(nc(N3CCOCC3)c3ccccc32)c1C=C(C#N)C#N,-42.6
17,Cc1ccc(OCCN(C)C(=O)C2CCC(=O)N(CCCN3CCOCC3)C2)cc1 (stereo not drawn),0.861
18,O=C(Nc1nnc(-c2ccc(F)cc2)o1)c1ccco1,4.68
19,COc1cccc(C=NCC(C)N=Cc2cccc(OC)c2O)c1O (stereo not drawn),3.33
20,Cc1ccc(-n2nnnc2/C=C\Nc2cc(C)on2)cc1,13.8
21,Nc1nc(NC(=O)c2ccco2)nn1-c1ccccc1,2.02
22,N/C(Cc1ccc(Cl)cc1Cl)=N\OC(=O)c1ccccc1,-8.71
23,O=C(CSc1ccc(Br)c2cccc(Cl)c12)Nc1ccc(S(=O)(=O)Nc2nccs2)cc1,27.1

row,Structure (SMILES),"hERG current change (%, negative = inhibition) at 10uM [%]"
1,CCc1ccc2c(c1)cc(CN(C(=S)Nc1ccccc1)C1CC1)c1nnnn12,-33.7
2,CCCCCn1c(CN2CCN(C(=O)OCC)CC2)nc2c1c(=O)[nH]c(=O)n2C,-69.8
3,O=c1ccn(-c2ccccc2)[nH]1,5.84
4,O=C(O)c1coc2ccccc12,14.9
5,Oc1cccc(C(Nc2nccs2)c2ccc3cccnc3c2O)c1 (stereo not drawn),-13.3
6,CN(C)CCCNC(=O)/C(=C/c1ccc(-c2ccc([N+](=O)[O-])cc2)o1)NC(=O)c1ccccc1,-73.6
7,CCN(CC)CCNC(=O)Cn1c(C)cc2ccccc2c1=O,1.83
8,Cn1c(CNc2ccc(Cl)cc2)nc2ccccc21,-15.7
9,Cc1cc(C)cc(N(C(C)C(=O)N2CCCCC2)S(C)(=O)=O)c1 (stereo not drawn),4.06
10,CCOc1ccc(C2=NNC(c3cccs3)=Nc3ccc(OC)cc32)cc1OCC,-6.48
11,O=C(CC1SC(N2CCCCC2)=NC1=O)Nc1ccc(C(=O)Nc2ccccc2)cc1 (stereo not drawn),-22.2
12,CC(=O)Nc1ccc(NC(=O)CN(c2cc(Cl)ccc2Cl)S(C)(=O)=O)cc1,1.9
13,Cc1ccc(C)c2[nH]c(=O)c(C(c3nnnn3Cc3ccco3)N3CCc4ccccc4C3)cc12 (stereo not drawn),-2.35
14,COc1ccc(OCC(=O)NS(=O)(=O)c2ccccc2)cc1,15.3
15,O=C(NCc1ccc(Cl)cc1)N1CCN(Cc2ccccc2)CC1,-29.9
16,CC(C)(C)NS(=O)(=O)c1ccc2nc(NC(=O)Cc3cccs3)sc2c1,-11
17,Cc1ccc(Cn2ccsc2=NC(=O)COC(=O)c2ccc(O)cc2O)cc1,18.2
18,O=C(NC1CCCCC1)C(=S)N1CCCC1,19.9
19,CCOc1ccc(OCCC(=O)N(CC(=O)Nc2ccccc2C(F)(F)F)Cc2ccco2)cc1,-5.98
20,Cc1cc(CNC(=O)C(C)n2cc([N+](=O)[O-])cn2)c2ccccc2n1 (stereo not drawn),-4.91
21,CC(=O)Nc1ccc(NC(=O)C(C)OC(=O)CSCc2cccc(Cl)c2)cc1 (stereo not drawn),0.407
